The full ranking holds about 81,000 sequences; the median of “one-hybrid fitness for binding NBS DNA” is about -0.1, and the highest 2% start at about 0.36. The list shows a part of the results.
B1: Caulobacter ParB omega fusion; a variant is named by its letters at X, in order, B8GW30 (parent)
chain: MESVVVGEPGMSEGRRGLGRGLSALLGEVDAAPAQAPGEQLGGSREAPIEILQRNPDQPRRTFREEDLEDLSNSIREKGVLQPILVRPSPDTAGEYQIVAGERAWRAAQRAGLKTVPIMVRELDDLAVLEIGIIENVQRADLNVLEEALSYKVLMEKFERTQENIAQTIGKSXSHVANXMRLLXLPDEVQSYLVSGELTAXHARAIAAAADPVALAKQIIEGGLSVRETEALARKAPNLSAGKSKGGRPPRVKDTDTQALESDLSSVLGLDVSIDHRGSTGTLTITYATLEQLDDLCNRLTRGI

Variants of: B1
Experiment: one-hybrid fitness for binding NBS DNA (the Noc-binding site; scaled: cognate 1, non-cognate 0); higher = stronger binding
Details: with NBS DNA site
Procedure, shortened: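 Fitness is the rescaled log change in variant-to-wild-type read ratio, measured by Illumina sequencing of plasmids before and after bacterial one-hybrid selection. The scale puts cognate at 1 and non-cognate at 0. Selection of Caulobacter ParB libraries, four specificity codons randomised, took place in E. coli USO with a HIS3 reporter, site 19 bp from the promoter, over 48 hours at 37°C on M9-minus-histidine with 0.1 mM IPTG and 5 mM 3-AT.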

Variant	one-hybrid fitness for binding NBS DNA
YSWR	≤ 0.2
CSRC	≤ 0.2
DTND	≤ 0.2
GLPS	≤ 0.2
RWHV	≤ 0.2
RSTR	0.447
PSVI	≤ 0.2
TEDR	≤ 0.2
RITH	≤ 0.2
VSYM	≤ 0.2
IYNY	≤ 0.2
LRQN	≤ 0.2
ILDT	≤ 0.2
ECSC	≤ 0.2
HFTD	≤ 0.2
CQAS	≤ 0.2
HGPW	≤ 0.2
HVRL	≤ 0.2
YWGS	≤ 0.2
PTHL	≤ 0.2
VRFS	≤ 0.2
RQFY	≤ 0.2
RACA	≤ 0.2
TPSS	≤ 0.2
NHRD	≤ 0.2

Variant	one-hybrid fitness for binding NBS DNA
FGPV	≤ 0.2
WCRA	≤ 0.2
IRQM	≤ 0.2
LLPG	≤ 0.2
AQDC	≤ 0.2
ACKD	≤ 0.2
ILTF	≤ 0.2
GECS	≤ 0.2
NGRA	≤ 0.2
ACYT	≤ 0.2
RACG	≤ 0.2
IWNT	≤ 0.2
METS	≤ 0.2
QKDY	≤ 0.2
RGLT	≤ 0.2
SHYF	≤ 0.2
IEIV	≤ 0.2
YRIT	≤ 0.2
SALV	≤ 0.2
MIQP	≤ 0.2
CKAQ	≤ 0.2
QMVM	≤ 0.2
IRKI	≤ 0.2
AYKN	≤ 0.2
SNKY	≤ 0.2

Variant	one-hybrid fitness for binding NBS DNA
YMAA	≤ 0.2
KLDY	≤ 0.2
SEAT	≤ 0.2
QPFS	≤ 0.2
AMET	≤ 0.2
DRTA	≤ 0.2
VDSP	≤ 0.2
SLFP	≤ 0.2
KTPG	≤ 0.2
GCCS	≤ 0.2
MQDL	≤ 0.2
YMHC	≤ 0.2
GAGR	≤ 0.2
DFTL	≤ 0.2
RIRE	≤ 0.2
VIQC	≤ 0.2
QTQS	0.504
SDES	≤ 0.2
TIME	≤ 0.2
FSWY	≤ 0.2
RPGF	≤ 0.2
YKGR	≤ 0.2
LTGV	≤ 0.2
RRIT	0.788
CQTR	≤ 0.2

Variant	one-hybrid fitness for binding NBS DNA
TTNM	≤ 0.2
ENVT	≤ 0.2
IHII	≤ 0.2
RRPD	≤ 0.2
TLSP	≤ 0.2
FMHG	≤ 0.2
LSLT	≤ 0.2
FRDF	≤ 0.2
NSTW	≤ 0.2
AGKM	≤ 0.2
LARR	≤ 0.2
FITM	≤ 0.2
TDLA	≤ 0.2
ETYR	≤ 0.2
GGRF	≤ 0.2
VEFR	≤ 0.2
QYTM	≤ 0.2
GGTY	≤ 0.2
IQEL	≤ 0.2
RHYQ	≤ 0.2
FYAS	≤ 0.2
MLKY	≤ 0.2
WQNC	≤ 0.2
LRHR	0.252
LVLE	≤ 0.2

Variant	one-hybrid fitness for binding NBS DNA
IAGI	≤ 0.2
WTRR	0.241
QHLY	≤ 0.2
AANS	≤ 0.2
ESRF	≤ 0.2
SNAL	≤ 0.2
VMAC	≤ 0.2
GQDG	≤ 0.2
EVRS	≤ 0.2
SWEG	≤ 0.2
TVRA	≤ 0.2
KREM	≤ 0.2
THFR	≤ 0.2
SDPH	≤ 0.2
WVLY	≤ 0.2
LMVN	≤ 0.2
KYGP	≤ 0.2
AAWR	≤ 0.2
GEAL	≤ 0.2
QNSM	≤ 0.2
SEHE	≤ 0.2
TDRA	≤ 0.2
ADYY	≤ 0.2
LAQC	≤ 0.2
RQVM	≤ 0.2

Variant	one-hybrid fitness for binding NBS DNA
CFHG	≤ 0.2
RYLY	≤ 0.2
ESVI	≤ 0.2
GHPP	≤ 0.2
SPYC	≤ 0.2
GDCC	≤ 0.2
ENKA	≤ 0.2
TLDG	≤ 0.2
CNPR	≤ 0.2
QAVR	0.358
VRSG	≤ 0.2
SSQA	≤ 0.2
ARYT	≤ 0.2
DTYN	≤ 0.2
CYPQ	≤ 0.2
TYIF	≤ 0.2
NNPA	≤ 0.2
SLHL	≤ 0.2
PWSG	≤ 0.2
DKDW	≤ 0.2
HRCI	≤ 0.2
LKNL	≤ 0.2
TNQD	≤ 0.2
YMMG	≤ 0.2
DAQR	≤ 0.2

Variant	one-hybrid fitness for binding NBS DNA
NLRL	≤ 0.2
NVYM	≤ 0.2
QTVC	≤ 0.2
WPPC	≤ 0.2
RHPS	≤ 0.2
EISC	≤ 0.2
RGVM	≤ 0.2
TWDP	≤ 0.2
RHFS	0.208
QPAD	≤ 0.2
QMAC	≤ 0.2
EYEV	≤ 0.2
RMNT	0.546
WTKW	≤ 0.2
WQNN	≤ 0.2
ASKM	≤ 0.2
HARS	≤ 0.2
AYKS	≤ 0.2
HGYR	≤ 0.2
TSLT	≤ 0.2
GRCT	≤ 0.2
HTKL	≤ 0.2
TTPH	≤ 0.2
WLVG	≤ 0.2
MWHK	≤ 0.2

Variant	one-hybrid fitness for binding NBS DNA
AQSG	≤ 0.2
IAHE	≤ 0.2
DGKG	≤ 0.2
FLTS	≤ 0.2
GPIY	≤ 0.2
WGPE	≤ 0.2
ANFS	≤ 0.2
TFAR	≤ 0.2
QAMS	0.266
ATMY	≤ 0.2
ATPR	≤ 0.2
NQEI	≤ 0.2
EGPE	≤ 0.2
HFTY	≤ 0.2
AIMD	≤ 0.2
KCKV	≤ 0.2
RWDM	≤ 0.2
QLTP	≤ 0.2
HSMS	≤ 0.2
PSLL	≤ 0.2

— a collection of fitness landscapes (doi:10.1016/j.celrep.2020.107928)
